This is one part of the list. The full chains were built here from the parent and the listed change. Inactive controls read about 0.05.
B1: TEV protease; numbered along this chain (parent)
chain: MGESLFKGPRDYNPISSSICHLTNESDGHTTSLYGIGFGPFIITNKHLFRRNNGTLVVQSLHGVFKVKDTTTLQQHLVDGRDMIIIRMPKDFPPFPQKLKFREPQREERICLVTTNFQTKSMSSMVSDTSCTFPSGDGIFWKHWIQTKDGQCGSPLVSTRDGFIVGIHSASNFTNTNNYFTSVPKNFMELLTNQEAQQWVSGWRLNADSVLWGGHKVFMVKPEEPFQPVKEATQL

Variants of: B1
Assay: raw area under fraction-flipped curve 0-4 h after induction (AUC4h, not background-subtracted), DNA-recorder readout of cleavage of the substrate (dimensionless); higher = more cleavage of the substrate by the protease variant
Settings: temperature: 34 °C; time window: 0-4 h after rhamnose induction
Procedure: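 In vivo DNA recorder in E. coli TOP10(DE3) ΔrhaA at 34 °C. Each TEVp single-site mutant (parent TEVp 0) is paired with a single-site variant of the 7-mer TEVs (canonical ENLYFQ|S). The substrate sits between flexible linkers in a Bxb1-sfGFP-TEVs-SsrA fusion, so cleavage stabilises Bxb1 and speeds flipping of a recombination array, read by NGS. The value is the raw area under the fraction-flipped curve over 0-4 h after rhamnose induction (AUC4h), with ≥20 reads per time point. It is not background-subtracted; inactive controls average about 0.047.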
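Note: Bxb1 expression induced with 0.2% (w/v) L-rhamnose at OD600 near 0.5, cultures sampled hourly, flipped fraction per protease–substrate barcode pair counted by paired-end Illumina sequencing.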

Variant | area with substrate ENLYAQS | area with substrate ENLYGQS | area with substrate ENLYHQS | area with substrate ENLYIQS | area with substrate ENLYLQS | area with substrate ENLYMQS | area with substrate ENLYNQS | area with substrate ENLYTQS | area with substrate ENLYWQS | area with substrate ENLYYQS | area with substrate ENLYEQS | area with substrate ENLYPQS | area with substrate ENLYRQS | area with substrate ENLYVQS | area with substrate ENLYDQS | area with substrate ENLYKQS | area with substrate ENLYQQS | area with substrate ENLYSQS | area with substrate ENLYCQS
MGESLFKGPRDYNPISSSICHLTNESDGHTTSLYGIGFGPFIITNKHLFRRNNGTLVVQSLHGVFKVKDTTTLQQHLVDGRDMIIIRMPKDFPPFPQKLKFREPQREERICLVTTNFQTKSMSSMVSDTSCTFPSGDGIFWKHWIQTKDGQCGSPLVSTRDGFIVGIHSANNFTNTNNYFTSVPKNFMELLTNQEAQQWVSGWRLNADSVLWGGHKVFMVKPEEPFQPVKEATQL [S171N] | 0.0289 | 0.0535 | 0.0505 | 0.0613 | 0.0753 | 0.054 | 0.0699 | 0.0579 | 0.0583 | 0.0568 | – | – | – | – | – | – | – | – | –
MGESLFKGPRDYNPISSSICHLTNESDGHTTSLYGIGFGPFIITNKHLFRRNNGTLVVQSLHGVFKVKDTTTLQQHLVDGRDMIIIRMPKDFPPFPQKLKFREPQREERICLVTTNFQTKSMSSMVSDTSCTFPSGDGIFWKHWIQTKDGQCGSPLVSTRDGFIVGIHSARNFTNTNNYFTSVPKNFMELLTNQEAQQWVSGWRLNADSVLWGGHKVFMVKPEEPFQPVKEATQL [S171R] | 0.0586 | 0.0718 | 0.0666 | 0.103 | – | 0.0733 | – | – | 0.0673 | 0.0602 | 0.067 | 0.063 | 0.0682 | 0.104 | – | – | – | – | –
MGESLFKGPRDYNPISSSICHLTNESDGHTTSLYGIGFGPFIITNKHLFRRNNGTLVVQSLHGVFKVKDTTTLQQHLVDGRDMIIIRMPKDFPPFPQKLKFREPQREERICLVTTNFQTKSMSSMVSDTSCTFPSGDGIFWKHWIQTKDGQCGSPLVSTRDGFIVGIHSASNFTNTNLYFTSVPKNFMELLTNQEAQQWVSGWRLNADSVLWGGHKVFMVKPEEPFQPVKEATQL [N178L] | 0.0777 | – | – | 0.136 | – | 0.0961 | – | – | 0.112 | – | 0.0618 | 0.0741 | 0.0582 | – | – | – | – | – | –
MGESLFKGPRDYNPISSSICHLTNESDGHTTSLYGIGFGPFIITNKHLFRRNNGTLVVQSLHGVFKVKDTTTLQQHLVDGRDMIIIRMPKDFPPFPQKLKFREPQREERICLVTTNFQTKSMSSMVSDTSCTFPSGDGIFWKHWIQTKDGQCGSPLVSTRDGFIVGIHSASNFTNTNNYFTSVPKNFFELLTNQEAQQWVSGWRLNADSVLWGGHKVFMVKPEEPFQPVKEATQL [M188F] | 0.0646 | 0.0625 | 0.0677 | – | – | 0.0937 | – | – | – | 0.0717 | – | – | – | 0.116 | 0.0577 | 0.0811 | 0.0628 | 0.0619 | –
MGESLFKGPRDYNPISSSICHLTNESDGHTTSLYGIGFGPFIITNKHLFRRNNGTLVVQSLHGVFKVKDTTTLQQHLVDGRDMIIIRMPKDFPPFPQKLKFREPQREERICLVTTNFQTKSMSSMVSDTSCTFPSGDGIFWKHWIQTKDGQCGSPLVSTRDGFIVHIHSASNFTNTNNYFTSVPKNFMELLTNQEAQQWVSGWRLNADSVLWGGHKVFMVKPEEPFQPVKEATQL [G166H] | 0.051 | – | 0.0429 | 0.0497 | – | 0.04 | – | – | 0.0528 | 0.0459 | – | 0.0555 | 0.0496 | 0.047 | 0.0458 | 0.0724 | 0.0543 | – | 0.0521
MGESLFKGPRDYNPISSSICHLTNESDGHTTSLYGIGFGPFIITNKHLFRRNNGTLVVQSLHGVFKVKDTTTLQQHLVDGRDMIIIRMPKDFPPFPQKLKFREPQREERICLVTTNFQTKSMSSMVSDTSCTFPSGDGIFWKHWIQTKDGQCGSPLVSTRDGFIVGIHSASNFTNTNNYFTSVPKNFMELHTNQEAQQWVSGWRLNADSVLWGGHKVFMVKPEEPFQPVKEATQL [L191H] | 0.0646 | 0.0636 | 0.0549 | – | – | 0.0429 | – | – | 0.059 | 0.0785 | 0.0471 | 0.0552 | 0.0766 | 0.0587 | 0.0717 | 0.0429 | 0.0624 | – | –
MGESLFKGPRDYNPISSSICHLTNESDGHTTSLYGIGFGPFIITNKHLFRRNNGTLVVQSLHGVFKVKDTTTLQQHLVDGRDMIIIRMPKDFPPFPQKLKFREPQREERICLVTTNFQTKSMSSMVSDTSCTFPSGDGIFWKHWIQTKDGQCGSPLVSTRDGFIVGIHSASNFTNTNNYFTSVPKNFMQLLTNQEAQQWVSGWRLNADSVLWGGHKVFMVKPEEPFQPVKEATQL [E189Q] | 0.091 | 0.0742 | 0.0807 | 0.122 | – | – | 0.0544 | – | 0.0844 | – | 0.0944 | – | 0.0548 | 0.106 | – | 0.0624 | 0.0768 | 0.076 | –
MGESLFKGPRDYNPISSSICHLTNESDGHTTSLYGIGFGPFIITNKHLFRRNNGTLVVQSLHGVFKVKDTTTLQQHLVDGRDMIIIRMPKDFPPFPQKLKFREPQREERICLVTTNFQTKSMSSMVSDTSCTFPSGDGIFWKHWIQTKDGQCGSPLVSTRDGFIVGIHHASNFTNTNNYFTSVPKNFMELLTNQEAQQWVSGWRLNADSVLWGGHKVFMVKPEEPFQPVKEATQL [S169H] | 0.0696 | 0.0636 | – | – | – | – | 0.0524 | – | – | 0.0522 | 0.0552 | 0.0566 | – | – | 0.0513 | – | 0.0521 | 0.0609 | 0.0434
MGESLFKGPRDYNPISSSICHLTNESDGHTTSLYGIGFGPFIITNKHLFRRNNGTLVVQSLHGVFKVKDTTTLQQHLVDGRDMIIIRMPKDFPPFPQKLKFREPQREERICLVTTNFQTKSMSSMVSDTSCTFPSGDGIFWKHWIQTKDGQCGSPLVSTRDGFIVGIHSASNFTNTNNHFTSVPKNFMELLTNQEAQQWVSGWRLNADSVLWGGHKVFMVKPEEPFQPVKEATQL [Y179H] | 0.0571 | 0.0617 | 0.0585 | 0.0451 | – | 0.0674 | 0.0621 | – | 0.0618 | 0.0623 | 0.0827 | 0.0701 | 0.0613 | 0.0747 | 0.0646 | – | 0.0584 | – | –
MGESLFKGPRDYNPISSSICHLTNESDGHTTSLYGIGFGPFIITNKHLFRRNNGTLVVQSLHGVFKVKDTTTLQQHLVDGRDMIIIRMPKDFPPFPQKLKFREPQREERICLVTTNFQTKSMSSMVSDTSCTFPSGDGIFWKHWIQTKDGQCGSPLVSTRDGFIVGIHSASNFTNTNNPFTSVPKNFMELLTNQEAQQWVSGWRLNADSVLWGGHKVFMVKPEEPFQPVKEATQL [Y179P] | 0.0591 | 0.0675 | 0.0613 | 0.0521 | – | – | 0.0685 | 0.0447 | – | – | 0.0449 | 0.0492 | 0.0434 | 0.0553 | 0.0496 | 0.0344 | – | 0.0458 | 0.0558
